According to a collection of fitness landscapes (doi:10.1016/j.celrep.2020.107928):
Whole data set: some 81,000 sequences, median “one-hybrid fitness for binding NBS DNA” near -0.1, cut for the highest 2% near 0.36. The list shows a part of the results.

B1: Caulobacter ParB omega fusion; a variant is named by its letters at X, in order, B8GW30 (parent)
chain: MESVVVGEPGMSEGRRGLGRGLSALLGEVDAAPAQAPGEQLGGSREAPIEILQRNPDQPRRTFREEDLEDLSNSIREKGVLQPILVRPSPDTAGEYQIVAGERAWRAAQRAGLKTVPIMVRELDDLAVLEIGIIENVQRADLNVLEEALSYKVLMEKFERTQENIAQTIGKSXSHVANXMRLLXLPDEVQSYLVSGELTAXHARAIAAAADPVALAKQIIEGGLSVRETEALARKAPNLSAGKSKGGRPPRVKDTDTQALESDLSSVLGLDVSIDHRGSTGTLTITYATLEQLDDLCNRLTRGI

Variants of: B1
Test: one-hybrid fitness for binding NBS DNA (the Noc-binding site; scaled: cognate 1, non-cognate 0); higher = stronger binding
Details: with NBS DNA site
In short: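 The reporter was HIS3, with the binding site 19 bp from the promoter, in E. coli USO used for bacterial one-hybrid selection of Caulobacter ParB libraries with four specificity codons randomised. Growth was on M9 lacking histidine, with 0.1 mM IPTG and 5 mM 3-AT, for 48 hours at 37°C. Illumina sequencing covered plasmids before and after selection; three replicate libraries were pooled and variants with under 10 reads dropped. A fitness score is the log change in variant-to-wild-type read ratio, rescaled to the cognate and non-cognate references.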

Variant | one-hybrid fitness for binding NBS DNA
WRQN | 0.247
RIRM | ≤ 0.2
VNPS | ≤ 0.2
GRLC | ≤ 0.2
HCWV | ≤ 0.2
RPFA | ≤ 0.2
NLYR | ≤ 0.2
SSKQ | ≤ 0.2
QKPL | ≤ 0.2
SWYD | ≤ 0.2
QKPI | ≤ 0.2
QQSI | ≤ 0.2
SSTK | ≤ 0.2
RDKC | ≤ 0.2
MAWK | ≤ 0.2
RIVV | ≤ 0.2
AKSN | ≤ 0.2
ENIR | ≤ 0.2
YQEG | ≤ 0.2
NYFE | ≤ 0.2
GYTV | ≤ 0.2
TSVN | ≤ 0.2
DVAA | ≤ 0.2
REPS | ≤ 0.2
DQND | ≤ 0.2

Variant | one-hybrid fitness for binding NBS DNA
VHFW | ≤ 0.2
QEQV | ≤ 0.2
YSCN | ≤ 0.2
SPGG | ≤ 0.2
YLNY | ≤ 0.2
HYSS | ≤ 0.2
NADK | ≤ 0.2
HSMR | ≤ 0.2
AKLI | ≤ 0.2
NSTV | ≤ 0.2
VLAP | ≤ 0.2
EIQG | ≤ 0.2
YNTN | ≤ 0.2
PPYT | ≤ 0.2
HPHF | ≤ 0.2
AFRS | ≤ 0.2
YLSY | ≤ 0.2
KEHC | ≤ 0.2
NYTR | ≤ 0.2
SHSC | ≤ 0.2
LSED | ≤ 0.2
CCLC | ≤ 0.2
NRNH | ≤ 0.2
QHPT | 0.248
PWPF | ≤ 0.2

Variant | one-hybrid fitness for binding NBS DNA
GLLY | ≤ 0.2
KTIS | ≤ 0.2
RWDC | ≤ 0.2
TRMF | ≤ 0.2
CYAC | ≤ 0.2
KWTG | ≤ 0.2
GMSV | ≤ 0.2
RKVT | 0.512
FRPC | ≤ 0.2
TMDC | ≤ 0.2
PQTS | ≤ 0.2
VYRR | ≤ 0.2
NQTG | ≤ 0.2
KDLE | ≤ 0.2
RTRQ | 0.297
DDCL | ≤ 0.2
RTRR | 0.818
VAAM | ≤ 0.2
RVPP | ≤ 0.2
HKSQ | ≤ 0.2
WSHE | ≤ 0.2
PHLG | ≤ 0.2
PSCI | ≤ 0.2
NLCE | ≤ 0.2
VIHC | ≤ 0.2

Variant | one-hybrid fitness for binding NBS DNA
HIMN | ≤ 0.2
HANL | ≤ 0.2
SCWS | ≤ 0.2
LASY | ≤ 0.2
LCWV | ≤ 0.2
CEGR | ≤ 0.2
QHFK | ≤ 0.2
QLKE | ≤ 0.2
SQFR | ≤ 0.2
VEIA | ≤ 0.2
QLHQ | ≤ 0.2
STIY | ≤ 0.2
SRQG | ≤ 0.2
SLPI | ≤ 0.2
DGIR | ≤ 0.2
QYEC | ≤ 0.2
QAQP | ≤ 0.2
QSTT | 0.403
YSKH | ≤ 0.2
GVKW | ≤ 0.2
APPM | ≤ 0.2
SPIN | ≤ 0.2
YLTY | ≤ 0.2
SSTF | ≤ 0.2
REYC | ≤ 0.2

Variant | one-hybrid fitness for binding NBS DNA
GHHA | ≤ 0.2
DSRC | ≤ 0.2
MEDY | ≤ 0.2
WWAS | ≤ 0.2
HVGT | ≤ 0.2
GVRD | ≤ 0.2
QCVY | ≤ 0.2
ADRC | ≤ 0.2
RKHN | ≤ 0.2
FNGA | ≤ 0.2
PNNW | ≤ 0.2
VLLT | ≤ 0.2
GYSR | ≤ 0.2
ISND | ≤ 0.2
IWHR | ≤ 0.2
TRHG | ≤ 0.2
MQPT | ≤ 0.2
LVPY | ≤ 0.2
PYAA | ≤ 0.2
HWCR | ≤ 0.2
PMLN | ≤ 0.2
NVHH | ≤ 0.2
YTTD | ≤ 0.2
SELV | ≤ 0.2
NMKM | ≤ 0.2

Variant | one-hybrid fitness for binding NBS DNA
CRQV | ≤ 0.2
PHVM | ≤ 0.2
ATLP | ≤ 0.2
WPRW | ≤ 0.2
SLGT | ≤ 0.2
NPYE | ≤ 0.2
SSFA | ≤ 0.2
FYKS | ≤ 0.2
SIYL | ≤ 0.2
CIIR | ≤ 0.2
HYYS | ≤ 0.2
VIKL | ≤ 0.2
RCAF | ≤ 0.2
WMKE | ≤ 0.2
VGHL | ≤ 0.2
QING | ≤ 0.2
WHNS | ≤ 0.2
FTYT | ≤ 0.2
LNFS | ≤ 0.2
VNMG | ≤ 0.2
IRHH | ≤ 0.2
PELN | ≤ 0.2
AIMS | ≤ 0.2
ESSV | ≤ 0.2
FMTV | ≤ 0.2

Variant | one-hybrid fitness for binding NBS DNA
RHNH | ≤ 0.2
CAGD | ≤ 0.2
IWPL | ≤ 0.2
YCYC | ≤ 0.2
LNLY | ≤ 0.2
GQFT | ≤ 0.2
PSQI | ≤ 0.2
KIRG | ≤ 0.2
HEDG | ≤ 0.2
NDGL | ≤ 0.2
KWST | ≤ 0.2
PNSE | ≤ 0.2
RYGD | ≤ 0.2
DHDV | ≤ 0.2
TDSD | ≤ 0.2
GYTY | ≤ 0.2
LSKP | ≤ 0.2
ALKL | ≤ 0.2
DKTW | ≤ 0.2
QKSL | ≤ 0.2
CHKR | 0.212
YEAH | ≤ 0.2
NTWH | ≤ 0.2
FQNR | ≤ 0.2
HERA | ≤ 0.2

Variant | one-hybrid fitness for binding NBS DNA
PMWK | ≤ 0.2
NCTY | ≤ 0.2
LKSN | ≤ 0.2
STHL | ≤ 0.2
CLET | ≤ 0.2
WLLW | ≤ 0.2
AFCS | ≤ 0.2
ALNN | ≤ 0.2
DMSY | ≤ 0.2
DCLR | ≤ 0.2
KAAL | ≤ 0.2
EGVM | ≤ 0.2
GTDT | ≤ 0.2
RQGD | ≤ 0.2
QVYY | ≤ 0.2
LNQE | ≤ 0.2
TEAL | ≤ 0.2
YTDF | ≤ 0.2
LQFR | ≤ 0.2
HIHI | ≤ 0.2
